Measurements: the supplement of paper PMC3334620
In all, about 33,000 sequences were measured (“E-score (-0.5 to 0.5)”: median about -0.053, highest 2% from about 0.37 on). The list shows a part of the results.

These sequences were tested against Hap1 (UniProt P0CE41) (assay: PBM E-score (8-mer binding enrichment) (E-score (-0.5 to 0.5)); higher = stronger / more preferred TF binding; most listed sequences are background and not binding sites). Details: protein concentration: 200 nM; construct: GST-DNA-binding domain.
Sequence of UniProt P0CE41 (P0CE41 whole entry, the tested form may be a part): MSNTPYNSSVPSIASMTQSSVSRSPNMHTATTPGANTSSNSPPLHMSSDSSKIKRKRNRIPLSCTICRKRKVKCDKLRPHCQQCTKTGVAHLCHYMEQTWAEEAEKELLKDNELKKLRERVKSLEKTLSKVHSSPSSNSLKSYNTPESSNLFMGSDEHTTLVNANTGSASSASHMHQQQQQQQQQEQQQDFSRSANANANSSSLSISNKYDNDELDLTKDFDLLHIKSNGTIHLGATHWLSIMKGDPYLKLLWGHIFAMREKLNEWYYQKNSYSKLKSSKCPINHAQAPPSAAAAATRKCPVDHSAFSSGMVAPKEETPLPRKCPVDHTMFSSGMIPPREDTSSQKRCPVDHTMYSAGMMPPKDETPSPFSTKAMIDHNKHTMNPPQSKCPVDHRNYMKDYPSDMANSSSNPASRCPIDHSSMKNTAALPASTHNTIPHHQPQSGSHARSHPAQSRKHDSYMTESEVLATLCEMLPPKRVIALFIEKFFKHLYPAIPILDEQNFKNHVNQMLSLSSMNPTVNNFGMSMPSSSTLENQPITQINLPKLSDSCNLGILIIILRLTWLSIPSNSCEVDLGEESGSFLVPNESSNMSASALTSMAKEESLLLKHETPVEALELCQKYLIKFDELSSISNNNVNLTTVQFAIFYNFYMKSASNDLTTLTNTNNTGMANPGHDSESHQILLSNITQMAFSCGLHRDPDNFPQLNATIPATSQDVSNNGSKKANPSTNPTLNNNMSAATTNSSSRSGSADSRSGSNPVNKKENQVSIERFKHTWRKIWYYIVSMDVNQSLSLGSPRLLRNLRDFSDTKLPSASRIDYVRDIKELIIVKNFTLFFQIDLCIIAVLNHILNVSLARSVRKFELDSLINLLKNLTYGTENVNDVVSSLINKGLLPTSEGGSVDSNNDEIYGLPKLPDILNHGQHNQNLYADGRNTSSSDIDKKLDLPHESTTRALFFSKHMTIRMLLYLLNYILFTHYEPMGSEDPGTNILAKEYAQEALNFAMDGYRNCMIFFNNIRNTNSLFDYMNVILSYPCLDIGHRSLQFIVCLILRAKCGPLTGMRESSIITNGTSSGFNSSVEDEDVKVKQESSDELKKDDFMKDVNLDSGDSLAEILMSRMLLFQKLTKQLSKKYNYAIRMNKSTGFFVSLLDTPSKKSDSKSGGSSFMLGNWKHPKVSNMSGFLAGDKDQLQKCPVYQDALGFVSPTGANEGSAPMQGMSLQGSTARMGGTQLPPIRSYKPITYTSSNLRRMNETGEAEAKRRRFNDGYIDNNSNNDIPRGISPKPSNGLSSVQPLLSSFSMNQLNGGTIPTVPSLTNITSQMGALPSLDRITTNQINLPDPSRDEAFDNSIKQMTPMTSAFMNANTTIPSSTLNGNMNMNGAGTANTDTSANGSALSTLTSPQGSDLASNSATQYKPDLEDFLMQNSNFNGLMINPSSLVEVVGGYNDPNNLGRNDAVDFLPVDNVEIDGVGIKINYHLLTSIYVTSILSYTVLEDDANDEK
In short: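 GST-tagged yeast TFs (full-length or DNA-binding domain) were made by PURExpress in vitro transcription/translation and applied at about 100-200 nM to universal all-10-mer Agilent arrays. The arrays were made double-stranded by primer extension, on fresh or once-stripped slides. Bound protein was detected with fluorescent anti-GST, and scans were normalised with masliner. Each ungapped eight-base word, pooled with its reverse complement, received an E-score (modified Wilcoxon-Mann-Whitney statistic) from the Universal PBM Analysis Suite.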

Sequence | PBM E-score
GTCTTTGA | -0.209
CCACGATC | -0.101
ACGTTTAT | -0.195
AGCAGACG | 0.012
CGATAACG | 0.249
ACCAAAAT | 0.00352
CATGCATC | 0.0924
ACCCCGGC | 0.259
ACCCCCCC | -0.241
CTCAAGTA | -0.206
AGGCCAGC | -0.262
GATAACGC | 0.305
CAGATACA | -0.1
CCTCGCAC | 0.00768
TCTGACCA | -0.155
ACTCTGGG | -0.134
AGCGCTCG | 0.141
AGCCGGCG | 0.352
ACACGACA | -0.183
TCCGTAAA | 0.348
GTAGAGCA | -0.377
CAGGCCGA | 0.251
CCCTCGGA | 0.373
ACAACGAT | 0.0214

Sequence | PBM E-score
CTTCTCAC | -0.0697
CGACCCAG | -0.0655
CTTCGGAC | 0.406
AGACAAGC | -0.189
TGATACCA | -0.0747
GAGAGATC | -0.0834
AATTGGGT | -0.0265
TCGATGCA | -0.184
AAATCGAC | -0.003
AAACGCTC | 0.0499
CGTAGCAC | -0.131
ATCGCCCA | -0.0821
CTGACGTC | -0.156
ACATGGCT | -0.116
ATGGATTA | -0.222
CCTCATAA | -0.0823
AGTTGGTG | -0.106
GCGGCGAC | 0.269
CCACCGGA | 0.432
ACAACCAC | -0.0273
ATCATTGC | -0.148
CTAACATC | -0.0797
ACAAGGCT | -0.23
CCACCGCG | 0.203

Sequence | PBM E-score
TACGTCGA | -0.105
TACTCCGA | 0.375
CCAGTGAG | -0.0782
CCTGTCCA | -0.259
AATCGTCC | 0.162
CATTATAC | -0.00389
CTCATTCA | -0.0531
ATGAGCCC | -0.159
GCGTTGGA | 0.0179
CCAGCCTC | -0.124
CTTAAGAA | -0.104
GAGCCTGC | 0.00282
AAACGGAC | 0.229
TAAAGCCA | -0.0796
TCATGTCA | -0.293
CCAAGTCC | 0.0422
AAGGCGCC | 0.0149
CTGGGATC | 0.00427
ACGTCCTG | -0.211
CAGAATAG | -0.144
GCCCGGAA | 0.402
GAAACGCC | 0.238
AGTTTCGG | 0.345
TGCAGCAA | -0.0554

Sequence | PBM E-score
CCGGGGGA | 0.343
AGACAGGA | -0.133
GAGGCATC | -0.0843
ATCGCTGC | 0.222
ATGCAATG | -0.17
CAAGCTGA | -0.236
CTTCCTTA | -0.119
CCCTGTGC | -0.222
GATGTTGA | -0.173
GGGGTTTA | 0.266
ACCCTACT | -0.114
AAGGGGCA | -0.0967
ATTATGGA | 0.00681
AAATGGGT | -0.0173
CAAATCTC | 0.0956
CTGATCTC | -0.0864
GCACAACC | -0.0717
CAGTTGCC | -0.132
GCCTAAGA | -0.204
GAGTCCGA | 0.35
GTGACTAA | -0.0884
ACCCACGA | -0.0634
